According to the supplement of paper PMC12632987:
The full ranking holds about 4,500 sequences; the median of “median log2 fold change of GCK-ALFA target abundance (FLAG IP / Myc IP barcode read proportion)” is about 0.078, and the lowest 2% start at about -0.6. The list shows a part of the results.

B1: GBRAP_52_6113 (protein)
chain: MRARARAFVDEVLALVRAGRLEEARARLREAAETWDDEELRVLVEAVAERARAAPPEDLDAVWRLAELAADELEAAGRDPVLADDLLARTAAALYERELA
B2: GBRAP_11_2756 (protein)
chain: KKEKLKEMAELAEKAAELVKKLLEEGVDNEELQEELEKVLKELKKLVKEYGDEADKKLVEIAEELWKKAKEDEENKEQYYKELLATLRVLSGDFLLEYEE
B3: GBRAP_53_6409 (protein)
chain: MEEKIKKLIKEIKEAAEKATKANEEEQLKLAKEIVELMKKAKEAGLSDEELTKLLIEIAKKLKEAGASDRTLVILAQGAVDLGLDEAAAEITELIVEDLE
B4: GBRAP_74_6547 (protein)
chain: NAELKEKIKEAEKAGDLKKVIELLKEAIENGDFENAKYALLALGKIIKENREKVTLEEAEAAAEAVAELLSAFPSEDFSDEAYEAIKTVLTLAVELEQKA
B5: GBRAP_9_7158 (protein)
chain: MDELVAKLREVIEDAFEEIKEVVPEEVKPIVEKLREEAEKRLEELEEDPEATPEELVEEAKRILREFRERMKKEVDEETAKIVDAIVDTAELEIEEIEEE
B6: GBRAP_52_6298 (protein)
chain: MEEEAKKIAEELVELQKKGDEEGLEKKVKELVEEKSEEFLKLVAEELAKMAAESDEEDIDIIFEVMELLADEMIEGGYDEAFAEDLLALVAKKGYENYLK
B7: GBRAP_160_4368 (protein)
chain: AAALKALAAEIAALRAEFEEEAKDLTPEEVRKLALGVLAEVAALVWENEAVSEETEDAIMAIIDAAEAELRANADATPEEIVAITTAALDQIIALVEAEA
B8: GBRAP_125_3132 (protein)
chain: HMEEILENLAIVAKALGLSDDDVEEAVKIAEKHGVKGTMYAILAALGYDEVADLVEKITEEEAIEVVKEVAEKIKKDPSLTPEEVVELIKKLLKEKIAAK
B9: GBRAP_166_4927 (protein)
chain: HMEEKVEEAEKRVREVIEKGKADPTKTKEQITVDVAYETAEILEEEDDEETKLAIVEKALKLAKEAGLDPRRLATLTASLAGFDDETREKIDKIVEKILK
B10: GBRAP_128_3401 (protein)
chain: SEEEKVEEAKKLIEAIVEADVEEARKLARELMELFGTLSLEAQKKVAEAIEAALPKLTAEKLDVLADVIREKMPEFDPEKQDILNDMEVAALNAAEEKEE
B11: GBRAP_43_5745 (protein)
chain: DKELVEGALDLAILMAEDPSIPEETKLKAAKAAFDLIADTGIKETERLIELVKAFAENSSLESAEKLLKHLKELAAKSEKVKETFDAAIEALEKEIEKKK
B12: GBRAP_184_5115 (protein)
chain: KILEFEIEAENLEELKKKLEEVKEEAKKEKATVLVIVKIKNLTPEMAKALIEKLAEIKKAGAKEVIALIESDNISDEVLDTIYEGAKKNGLKNVVIARKE
B13: GBRAP_52_6040 (protein)
chain: MRERMRRLAREIVELVRAGRLEEARERIRELVETLSLEELELLGEELAELAREAEPEDLDAVMEVALMLADELEKAGYPEVFADDLEARVARAAVENLER
B14: GBRAP_95_7023 (protein)
chain: EDDELALQSAQEVLEALLELGDEEAARRAARRAAELALKVPASAVLKDLSLEGRVAIVREAAENFSREDTERIAEKLIAVAEKEEDKEAIREALEKALAE
B15: GBRAP_128_3293 (protein)
chain: SAAALRAAYRARLEALLGLTPEELRAATLALIDEAVAQGLEAVELFVEALEELLPKFTVEQLEAIAEALDEARERVDPETAALLADAASDALLEAEEKEE
B16: GBRAP_128_3213 (protein)
chain: SVEEVREEVRRLLEEISEADEEEAEEIAEELAELVANSSVEEAEAAREVIEELAPELSEEELEILMEAFERQARKLSDERSLVLLDIAIILGSEIIEKEE
B17: GBRAP_52_6097 (protein)
chain: SEAEIRAYAEALVAAARAGDVDAATAILLEAIARFSDEEVLAMLDLAAQLMAQLPADERERATDVMIEALDRAADETGKEELMDIAEARVAAIAYQALQA
B18: GBRAP_122_2955 (protein)
chain: SKEEEVERLVEETVEAAKKGDFAATILEALKEAAERFDAESLIRLAERLAERARELGKEAEAALAFATAAQWLLEERPELAEAADRLLELADELLDLLEE
B19: GBRAP_18_5401 (protein)
chain: APSPFEQAWAALSEEAQDLVAKAIGDALSSEDDEERIDILVDTLVELAARLSPEEVYNAMYLLLSSVLSRMEEAREVADRFIARVPERRAEAERVLADLE
B20: GBRAP_39_5719 (protein)
chain: EEEEEAENIFSYYEAVGAKKMYERGISLDELFAELYARARELAADDPELAAALDELRALAEAAGDEAKLAAAGLMSRLVEGEPREEILADAEKLIAYLKS
B21: GBRAP_14_3804 (protein)
chain: SEEKKKAIEDTVEEAIELIKEILKDVPQEVREKVIELVEEAKKKIIEENLNPDEIDELTKETIKKVEEILKDVPQEVRDKVIAVIATEFGVLILEVEELE
B22: GBRAP_52_6184 (protein)
chain: MREELREKVLEILELVKEGKLEEARKLAKELVESISEEEAKLLVEVMAEVTRELPVEELDDAFKMAEIIAEEMEEAGFDEVLAEDLLAAVARAMYEKELA
B23: GBRAP_160_4501 (protein)
chain: MEKVEEAIKEIEEEAELAIEAMKEVSDEDAVKIFRAYAGDVIEYLREEAKISEETEEKLEEIEDELVEEMKSIKNLTDEQIEEIVERYREEFIELLKEEA
B24: GBRAP_160_4587 (protein)
chain: EESIKKLKEIVEEELEEAKEDIKGESAEQRATIVLGAGGEIAMELSEIPEASDELIDKVLEITDEAAEYILSNPNITDEELEKLIEEAEKKMKEAIKESM
B25: GBRAP_11_2859 (protein)
chain: LKEKLKEAAELARKAVKALEELLKKGVDDEELRKEIEKLLEELLKLAKEYGDKDEIKLAEIALEDFKEAQKDPERAEEHLQRALAALRVLEGNLLLRIDE
B26: GBRAP_83_6979 (protein)
chain: KEKIVVAAPADRIDEAVEIAIDLHKEEGKEVELEIIVTPEDIDRVLEGIERLIKEIKNVEIRILGVGMTEEQAEELEKRIKEIAKKNGANPKIEVYLEEP
B27: GBRAP_9_7145 (protein)
chain: REEMIKKIREVIEDMFEEVKEVVPEEVKPLVEKLTKEALERFDKVVKDKSKTEEEIRDEAIELIDEFAKTVKAKVSPEIAKIVEAIALTAKLEIEEIYEE
B28: GBRAP_52_6241 (protein)
chain: MREEMRRIAEEALEKVKAGDLEGARKIFKEVAETWNDEEIEIFIDEFAELAAKARKEDIDDVWKLTEIAAEALEEAGKPDILVDDLEAKTAAALVKVEAK
B29: GBRAP_160_4568 (protein)
chain: MERVEEFLRELREDVEETLERTRDDSVANIRTAVVGTVGAHAMEAAEDPAFSDEMVDAILDAGDRIAAALDALADASYEEIRATVLAIIDDLAARVLALA

molecular target: GABARAP, O95166; assay: median log2 fold change of GCK-ALFA target abundance (FLAG IP / Myc IP barcode read proportion) (log2 ratio); each designed protein is fused to an ALFA-tag nanobody in HEK293 cells to bring the named protein to FLAG-tagged glucokinase (GCK); Myc marks an untargeted standard; higher = target protein stabilised (more abundant); conditions: target protein: 3xFLAG-MCP-GCK-ALFA reporter; HEK293 landing pad (RPLP)
Sequence (O95166 whole entry, the tested form may be a part): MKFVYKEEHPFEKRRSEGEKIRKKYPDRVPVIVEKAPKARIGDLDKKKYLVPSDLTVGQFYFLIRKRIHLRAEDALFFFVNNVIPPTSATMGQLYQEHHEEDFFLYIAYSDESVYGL
In short: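 The readout is target abundance, the per-binder median log2 ratio of FLAG to Myc barcode read proportions. It came from HEK293 landing-pad cells carrying a recombined ALFA-nanobody-fused binder library, induced with 2 μg mL^−1 doxycycline and transfected with a plasmid for a FLAG-tagged target and a Myc-tagged standard. After 48 h, lysates were immunoprecipitated with anti-FLAG and anti-Myc, and circular RNA barcodes were reverse transcribed, amplified and sequenced. Each barcode needed a proportion of at least 10^−7 in both replicates and each binder at least 3 barcodes per replicate, a pseudocount of 10^−6 was added, and the replicates were pooled.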

Row | Binder | median log2 fold change
1 | B1 | -0.0387
2 | B2 | 0.0874
3 | B3 | -0.0147
4 | B4 | -0.0235
5 | B5 | 0.0143
6 | B6 | -0.352
7 | B7 | 0.0375
8 | B8 | -0.0148
9 | B9 | 0.388
10 | B10 | 0.0103
11 | B11 | 0.197
12 | B12 | 0.0258
13 | B13 | -0.365
14 | B14 | 0.302
15 | B15 | 0.0324
16 | B16 | -0.403
17 | B17 | -0.0573
18 | B18 | -0.119
19 | B19 | 0.00546
20 | B20 | 0.194
21 | B21 | 0.173
22 | B22 | -0.0301
23 | B23 | -0.0957
24 | B24 | -0.0805
25 | B25 | 0.415
26 | B26 | 0.0981
27 | B27 | 0.154
28 | B28 | 0.081
29 | B29 | 0.154
